Reference: PubChem BioAssay AID686978 (National Center for Advancing Translational Sciences (NCATS), 2013)
Screen size: about 420,000 compounds; about 64,000 (15%) were called active. Inconclusive means that the source gave no clear call. Such entries were picked first, then a sample of the others. The call rests on the fitted dose curve; in most records, active means well fitted inhibition curve with a large enough effect; inconclusive means small, poorly fitted or top-dose-only effect; inactive means flat fitted curve, though single readings scatter. Potencies of inconclusive entries are left out as doubtful fits.

Experiment: qHTS for Inhibitors of human tyrosyl-DNA phosphodiesterase 1 (TDP1): qHTS in cells in absence of CPT; further: nearly all actives have a fitted effect of over 55% in size
Settings: DT40 Tdp1-/- hTDP1 cells, no CPT, ATP luminescence, 48 h; activity change, negative = growth inhibition: at 46.2 µM (top of the series)
How it was run: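 Cells were dispensed at 400 per well, compounds added by pin tool, plates incubated ≥48 hr at 37 °C, then CellTiter-Glo added for 30 min at room temperature before luminescence reading. Line: DT40 Tdp1-/- complemented with hTDP1; camptothecin omitted.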
On the % scale 0 is the no-effect control and ±100 the full control effect; potency means the concentration at half of the fitted maximal effect; tags describe the fitted curve by direction and shape.

SMILES | Potency | activity change, negative = growth inhibition
O=C(c1ccco1)N1N=C(c2ccc(Br)cc2)CC1c1ccco1 (stereo unspecified) | active: 5.17 µM | –
COc1ccc2c(CN(C)Cc3ccccc3)cc(=O)oc2c1 | inconclusive [inhibitor, single point] | –
N#Cc1c(C(F)(F)F)cc(Cc2ccccc2)nc1SCC(=O)NCC(=O)O | – | inactive: -12.1%
CCCOc1ccccc1C1CC(=O)NC2=C1C(=O)CCC2 (stereo unspecified) | active: 4.11 µM | –
O=C(NC1CCCC1)C(c1cccs1)N(CC1CCCO1)C(=O)Cc1cccs1 (stereo unspecified) | active: 20.6 µM | –
CCN(CC)CCOC(=O)C(Cc1ccco1)Cc1cccc2ccccc12 (stereo unspecified) | inconclusive [inhibitor, single point] | –
COCCSc1ccccc1C(=O)Nc1ccccc1C#N | inconclusive [inhibitor, partial curve, poor fit] | –
NC(=O)C1CCN(C(=O)CN2CCN(c3cccc(C(F)(F)F)c3)CC2)CC1 | – | inactive: -12.3%
CCn1cc(C(=O)NCCCOC(C)C)c(=O)c2cc(S(=O)(=O)N(C)C3CCCCC3)ccc21 | inconclusive [inhibitor, single point] | –
O=c1[nH]c(CSc2nc3ccccc3s2)nc2ccccc12 | – | inactive: 1.83%
CSc1cccc(NC(=O)CCCOc2cc(=O)n(C)c3ccccc23)c1 | inconclusive [inhibitor, single point] | –
CCN(Cc1ccccc1)Cc1c(O)ccc2c(=O)c(-c3ccccc3Cl)coc12 | – | inactive: -10.4%
O=C(NCc1ccc(Cl)cc1)c1cc2c(nc3sccn32)s1 | inconclusive [inhibitor, partial curve] | –
C[C@H](CO)N1C[C@H](C)[C@@H](CN(C)Cc2ccc(C(=O)O)cc2)Oc2c(NS(=O)(=O)c3ccccc3)cccc2C1=O | – | inactive: -10.7%
Clc1ccccc1Nc1nc(-c2cccnc2)cs1 | inconclusive [inhibitor, single point] | –
O=C(NNC(=O)c1cnccc1C(F)(F)F)c1ccc(Cl)cc1 | – | inactive: -14.1%
CC(=O)c1cccc(NC(=O)c2ccc3c(c2)c(C)c(C)n3Cc2ccc(Cl)cc2)c1 | active: 9.2 µM | –
COc1cc(OC)c(NC(=O)CSCc2nc(-c3ccc(OC)c(OC)c3)no2)cc1Cl | inconclusive [inhibitor, single point] | –
COCCCC/C(=N\OCCN)c1ccc(C(F)(F)F)cc1 | active: 16.4 µM [middle of 4 runs] | –
CCOC(=O)C1CCCN(C(=O)CN(c2ccc(OC)cc2)S(=O)(=O)c2c(C)noc2C)C1 (stereo unspecified) | inconclusive [inhibitor, full curve, poor fit] | –
CC1=NN(C(N)=S)C(=O)C1N=Nc1ccc(C)c(Br)c1 (stereo unspecified) | active: 16.4 µM | –
CC(=O)Nc1ccc(C(=O)OCC(=O)NC2CCCCCC2)cc1 | – | inactive: -14.3%
COc1ccc(OCc2n(CC(=O)OC3CC(C)CCC3C(C)C)c3ccccc3[n+]2C)cc1 (stereo unspecified) | active: 2.31 µM | –
Cc1cc(C(=O)COC(=O)c2ccc(NC(=O)CC#N)cc2)c(C)n1CC(F)(F)F | – | inactive: -28.3%
CCOC(=O)C(=NO)C1=CSC2=NNC(C)(C)N12 | active: 20.6 µM | –
CCOc1cccc(C(=O)N2CCCCC2c2cccnc2)c1 (stereo unspecified) | – | inactive: -12.2%

SMILES | Potency | activity change, negative = growth inhibition
CCN(CC)c1ccc(NC(=O)CN2C(=O)CSc3ncccc32)c(C)c1 | active: 7.31 µM | –
O=C(NCc1ccccc1)c1ccc(Cn2c(=O)c3cccn3c3cccnc32)cc1 | – | inactive: -22.6%
CCN1C(=O)[C@H]2[C@@H](c3ccc(C)cc3)N[C@]3(CCCN(CC4CCCCC4)C3=O)[C@H]2C1=O | inconclusive [inhibitor, partial curve] | –
Cc1cc(C)c(C)c(S(=O)(=O)N2CCC(C(=O)N3CCCCCCC3)CC2)c1C | inconclusive [inhibitor, single point] | –
O=C(NNC(=S)NC(=O)c1ccc(Br)cc1)c1ccc([N+](=O)[O-])cc1 | active: 23.1 µM | –
COc1ccc(-c2csc(C(C)(O)c3ccc(F)c(F)c3)n2)cc1 (stereo unspecified) | inconclusive [inhibitor, single point] | –
O=C(Nc1cc(-c2nc3cc(Cl)ccc3o2)ccc1Cl)c1cc2ccccc2o1 | – | inactive: 19.5%
COc1cccc(C2=CC(=O)C[C@H](c3ccc(Cl)cc3)C2)c1 | inconclusive [inhibitor, single point] | –
CCc1cccc(CC)c1NC(=O)CN1CCN(c2ccccc2)CC1 | inconclusive [inhibitor, single point] | –
CN(Cc1ccccc1)S(=O)(=O)c1ccc(F)c(C(=O)Nc2cc(Cl)cc(Cl)c2)c1 | inconclusive [inhibitor, single point] | –
O=C(CC(Nc1cccc(Cl)c1Cl)C(=O)O)c1ccccc1 (stereo unspecified) | – | inactive: 12.4%
Cc1ccc(NC(=O)C2CCN(c3ncccn3)CC2)cc1F | – | inactive: -9.7%
Fc1ccc(N2CCN(Cc3nnc(-c4ccccc4)o3)CC2)cc1 | – | inactive: -13.9%
COc1ccccc1-c1cc(C(F)(F)F)n2ncc(C(=O)N3CCc4ccccc4C3)c2n1 | active: 23.1 µM | –
Cc1ccc2[nH]c(C(=O)O)c(NC(=O)CN3CCN(c4cccc(C)c4C)CC3)c2c1 | active: 23.1 µM | –
O=C(c1ccc(Cl)cc1Cl)N1CCC(c2nc3c(nnn3Cc3ccco3)c(=O)[nH]2)CC1 | inconclusive [inhibitor, single point] | –
O=C(Nc1cccc(S(=O)(=O)Nc2ccc(Cl)cc2)c1)c1ccccn1 | inconclusive [inhibitor, partial curve] | –
O=C(COC(=O)c1cc(-c2cccs2)nn1-c1ccccc1)Nc1ccc(F)c([N+](=O)[O-])c1 | – | inactive: -21.5%
COC(=O)c1ccc(Cl)c(NS(=O)(=O)c2ccc3c(c2)OCCO3)c1 | active: 4.11 µM | –
O=C1CCC2CN3CCc4c([nH]c5ccccc45)C3CC2C1 (stereo unspecified) | active: 20.6 µM | –
CCN(/C(N)=N/c1nc(C)cc(C)n1)c1ccccc1 | active: 16.4 µM | –
CCC(C(=O)N1CC2(C)CC1CC(C)(C)C2)N1C(=O)c2ccccc2C1=O (stereo unspecified) | inconclusive [inhibitor, partial curve] | –
COCCn1c(=O)c(-c2cc(F)cc(F)c2)nc2cnc(OCc3ccccc3)nc21 | – | inactive: 3.6%
CCOC(=O)N1CCN(Cc2cc(=O)oc3cc4c(cc23)CCC4)CC1 | inconclusive [inhibitor, single point] | –
COc1ccc(N=C(c2ccccc2)c2c(C)[nH]n(-c3ccccc3)c2=O)c(OC)c1 | active: 18.4 µM | –
CC1NC(=O)c2cc3ccccc3cc2-n2c1nc1ccc(F)cc1c2=O (stereo unspecified) | – | inactive: -5.66%

SMILES | Potency | activity change, negative = growth inhibition
COc1ccc(C(=O)N2CCC3(CCN(C(=O)Nc4cccc(C#N)c4)CC3)CC2)cc1 | inconclusive [inhibitor, single point] | –
COc1ccc(C(=O)CC(=O)c2ccccc2)cc1 | inconclusive [inhibitor, single point] | –
Cc1cccc(C)c1NC(=O)C(C1CC1)n1c(-c2ccc(-c3ccccc3)cc2)nc2ccccc21 (stereo unspecified) | inconclusive [inhibitor, single point] | –
Nc1cc2c(cc1Cl)-c1ccccc1C2 | – | inactive: -28.9%
COc1ccccc1C(=O)N/C(=C/c1ccccc1)C(=O)Nc1ccc(C(=O)O)cc1 | – | inactive: -1.42%
CCOC(=O)c1ccc(Cl)c(S(=O)(=O)N2CCCC2)c1 | inconclusive [inhibitor, partial curve] | –
CCOC(=O)/C(=C\c1cccc(O)c1)c1nc2sc(C)c(C)c2c(=O)[nH]1 | active: 23.1 µM | –
O=S(=O)(c1cccc(C(F)(F)F)c1)N1c2ccccc2-n2cccc2C1c1cccnc1 (stereo unspecified) | active: 18.4 µM | –
O=C(COC(=O)c1cc[n+]([O-])cc1)NCC12CC3CC(CC(C3)C1)C2 | – | inactive: -13.2%
CCOc1ccc(NC(=O)CSc2nc(=O)n(CCN3CCOCC3)c3c2CCCC3)cc1 | – | inactive: 7.14%
CC(=O)c1ccc(NC(=O)CSc2nc(N3CCOCC3)nc(N3CCOCC3)n2)cc1 | – | inactive: -17%
COc1ccc(NC(=O)CSc2nc3ccccc3n2CC(=O)Nc2cccc(C)c2C)cc1 | inconclusive [inhibitor, single point] | –
Nc1[nH]c(C(=O)c2ccccc2)c(-c2ccccc2Br)c1C(=O)NCCc1ccc(Cl)cc1Cl | inconclusive [inhibitor, single point] | –
Cc1ccc(C)c(OCC(O)CN2CCN(CCN3C(=O)c4cccc5cccc(c45)C3=O)CC2)c1 (stereo unspecified) | active: 18.4 µM | –
CCOc1c2c(nc3ccc(Cl)cc13)CCC2 | inconclusive [inhibitor, partial curve] | –
Cc1ccc2[nH]c(=O)c(CN(Cc3cccs3)Cc3nnnn3CC3CCCO3)cc2c1 (stereo unspecified) | active: 17.8 µM | –
CC1CCc2sc(C(=O)NCC(c3ccco3)N3CCCCC3)cc2C1 (stereo unspecified) | active: 10.3 µM | –
CC(NC(=O)NC1CCCCC1)C(c1cccs1)N1CCN(Cc2ccccc2)CC1 (stereo unspecified) | inconclusive [inhibitor, single point] | –
COc1ccc(Cl)cc1Nc1nc2ccc(C)cc2n2cnnc12 | active: 14.6 µM | –
CCOc1ccccc1Nc1ncnc2ccccc12 | inconclusive [inhibitor, partial curve] | –
CCn1cc(C(C)NC(=O)COc2ccc(Cl)cc2C)c(C)n1 (stereo unspecified) | active: 20.6 µM | –
Cc1cccc(NC(=O)CSc2nnc([C@@H](N)Cc3ccccc3)o2)c1C | – | inactive: -17.8%
CN1CCN(CCCNC(=O)c2ccc3c(c2)N(Cc2ccccc2)CCS3)CC1 | inconclusive [inhibitor, single point] | –
Cc1ccc(-n2c(SCC(N)=O)nc3c(oc4ccccc43)c2=O)cc1 | active: 18.4 µM | –
